Results: EPA's CvTdb concentration-time database
“And” between values parts separate entries of the source, which are not always exact repeats. Identical values can stand only once. This continues a long series; more values of the same kind are listed elsewhere.

Columns and labels:
Experiment in all cases: concentration in plasma after dosing
Rat [1] = settings: dosed: 2-Hydroxy-4-methoxybenzophenone, 500 mg/kg, oral, Female, F344
Mouse [2] = settings: 12 h; dosed: 2-Hydroxy-4-methoxybenzophenone; 50 mg/kg; iv; Female; B6C3F1
Mouse [3] = settings: 0.5 h; dosed: 2-Hydroxy-4-methoxybenzophenone; 50 mg/kg; iv; Female; B6C3F1
Mouse [4] = settings: 1.5 h; dosed: 2-Hydroxy-4-methoxybenzophenone; 50 mg/kg; iv; Male; B6C3F1
Rat [5] = settings: dosed: 2-Hydroxy-4-methoxybenzophenone, 8 mg/kg, iv, Male, F344
Mouse [6] = settings: 4 h; dosed: 2-Hydroxy-4-methoxybenzophenone; 250 mg/kg; oral; Female; B6C3F1
Mouse [7] = settings: 6 h; dosed: 2-Hydroxy-4-methoxybenzophenone; 250 mg/kg; oral; Male; B6C3F1
Mouse [8] = settings: 12 h; dosed: 2-Hydroxy-4-methoxybenzophenone; 500 mg/kg; oral; Female; B6C3F1
Mouse [9] = settings: 8 h; dosed: 2-Hydroxy-4-methoxybenzophenone; 50 mg/kg; iv; Female; B6C3F1
Mouse [10] = settings: 5 min; dosed: 2-Hydroxy-4-methoxybenzophenone; 50 mg/kg; iv; Male; B6C3F1
Mouse [11] = settings: 0.5 h; dosed: 2-Hydroxy-4-methoxybenzophenone; 500 mg/kg; oral; Female; B6C3F1
Mouse [12] = settings: 6 h; dosed: 2-Hydroxy-4-methoxybenzophenone; 500 mg/kg; oral; Female; B6C3F1
Rat [13] = settings: dosed: 2-Hydroxy-4-methoxybenzophenone, 250 mg/kg, oral, Male, F344
Mouse [14] = settings: 6 h; dosed: 2-Hydroxy-4-methoxybenzophenone; 250 mg/kg; oral; Female; B6C3F1
Rat [15] = settings: dosed: 2-Hydroxy-4-methoxybenzophenone, 500 mg/kg, oral, Male, F344
Rat [16] = settings: dosed: 2-Hydroxy-4-methoxybenzophenone, 8 mg/kg, iv, Male, F344; remark: listed apart in the source
Rat [17] = settings: dosed: Perfluorohexanoic Acid, 160 mg/kg, oral, Female, Harlan Sprague Dawley
Rat [18] = settings: 3 h; dosed: Perfluorohexanoic Acid; 80 mg/kg; oral; Female; Harlan Sprague Dawley
Rat [19] = settings: dosed: Perfluorohexanoic Acid, 160 mg/kg, oral, Female, Harlan Sprague Dawley; remark: listed apart in the source
Rat [20] = settings: 1.5 h; dosed: Perfluorohexanoic Acid; 40 mg/kg; Male; F344
Rat [21] = settings: 6 h; dosed: Perfluorohexanoic Acid; 80 mg/kg; oral; Female; Harlan Sprague Dawley
Rat [22] = settings: 0.5 h; dosed: Perfluorohexanoic Acid; 80 mg/kg; oral; Female; Harlan Sprague Dawley
Rat [23] = settings: 6 h; dosed: Perfluorohexanoic Acid; 80 mg/kg; oral; Male; Harlan Sprague Dawley
Rat [24] = settings: 10 min; dosed: 2-Hydroxy-4-methoxybenzophenone; 8 mg/kg; iv; Female; F344
Rat [25] = settings: 10 min; dosed: 2-Hydroxy-4-methoxybenzophenone; 8 mg/kg; iv; Female; F344; remark: listed apart in the source
Mouse [26] = settings: dosed: 2-Hydroxy-4-methoxybenzophenone, 100 mg/kg, oral, Female, B6C3F1
Mouse [27] = settings: 12 h; dosed: 2-Hydroxy-4-methoxybenzophenone; 500 mg/kg; oral; Female; B6C3F1; remark: listed apart in the source
Mouse [28] = settings: 5 min; dosed: 2-Hydroxy-4-methoxybenzophenone; 500 mg/kg; oral; Male; B6C3F1
Rat [29] = settings: 2 h; dosed: 2-Hydroxy-4-methoxybenzophenone; 250 mg/kg; oral; Male; F344
Rat [30] = settings: 16 h; dosed: 2-Hydroxy-4-methoxybenzophenone; 500 mg/kg; oral; Male; F344
Mouse [31] = settings: 6 h; dosed: 2-Hydroxy-4-methoxybenzophenone; 250 mg/kg; oral; Male; B6C3F1; remark: listed apart in the source
Mouse [32] = settings: 4 h; dosed: 2-Hydroxy-4-methoxybenzophenone; 500 mg/kg; oral; Female; B6C3F1
Rat [33] = settings: 2 h; dosed: 2-Hydroxy-4-methoxybenzophenone; 250 mg/kg; oral; Male; F344; remark: listed apart in the source
Mouse [34] = settings: 0.5 h; dosed: 2-Hydroxy-4-methoxybenzophenone; 50 mg/kg; iv; Female; B6C3F1; remark: listed apart in the source
Mouse [35] = settings: 8 h; dosed: 2-Hydroxy-4-methoxybenzophenone; 50 mg/kg; iv; Male; B6C3F1
Rat [36] = settings: dosed: 2-Hydroxy-4-methoxybenzophenone, 100 mg/kg, oral, Female, F344
Rat [37] = settings: 2 h; dosed: 2-Hydroxy-4-methoxybenzophenone; 500 mg/kg; oral; Male; F344

COc1ccc(C(=O)c2ccccc2)c(O)c1 [2-Hydroxy-4-methoxybenzophenone]
Settings	concentration in plasma [ng/mL]
Rat [1], 2 h	1290
Rat [1], 5 min	50
Rat [5], 1 h	219
Rat [5], 6 h	24.6
Rat [13], 1.5 h	508
Rat [13], 8 h	26
Rat [15], 2 h	974
Rat [15], 5 min	16.3
Rat [16], 1 h	261
Rat [16], 6 h	20.7

Settings	concentration in plasma
Mouse [2]	15.6 ng/mL
Mouse [3]	2300 ng/mL
Mouse [4]	559 ng/mL
Mouse [6]	35.6 ng/mL
Mouse [7]	47.4 ng/mL
Mouse [8]	8.94 ng/mL and 13.1 ng/mL
Mouse [9]	29.4 ng/mL
Mouse [10]	28300 ng/mL
Mouse [11]	1230 ng/mL
Mouse [12]	574 ng/mL
Mouse [14]	26.5 ng/mL

O=C(O)C(F)(F)C(F)(F)C(F)(F)C(F)(F)C(F)(F)F [Perfluorohexanoic Acid]
concentration in plasma [ng/mL]
Settings	0.5 h	0.75 h	9 h	12 h
Rat [17]	281000	–	915	–
Rat [19]	–	101000	–	195

Settings	concentration in plasma [ng/mL]
Rat [18]	45300
Rat [20]	4950
Rat [21]	6200
Rat [22]	67500
Rat [23]	27500

O=C(c1ccccc1)c1ccc(O)cc1O [2,4-Dihydroxybenzophenone]
Settings	concentration in plasma
Mouse [27]	81.3 ng/mL and 125 ng/mL
Mouse [28]	187 ng/mL
Mouse [31]	222 ng/mL
Mouse [32]	769 ng/mL
Mouse [34]	286 ng/mL
Mouse [35]	94.8 ng/mL
Rat [24]	133 ng/mL
Rat [25]	97.9 ng/mL
Rat [29]	118 ng/mL
Rat [30]	47.4 ng/mL
Rat [33]	109 ng/mL
Rat [37]	323 ng/mL

concentration in plasma [ng/mL]
Settings	0.5 h	0.75 h	1 h	1.5 h	4 h	5 min	6 h
Mouse [26]	182	92.2	58	79.2	48.4	738	42.1
Rat [36]	–	–	195	–	–	–	51.1
